Measurements: publication PMC9911399, “Two distinct binding modes provide the RNA-binding protein RbFox with extraordinary sequence specificity”
Positions count from the first letter of the chain named. Some of the results follow.

T1: RBFOX1 RRM RbFoxmut (Fox-RRM*) (Homo sapiens, UniProt Q9NWB1 109-208, R118D;E147R;N151S;E152T)
T1 sequence: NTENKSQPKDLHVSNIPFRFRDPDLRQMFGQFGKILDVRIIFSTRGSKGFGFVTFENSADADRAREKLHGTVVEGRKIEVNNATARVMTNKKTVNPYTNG

B1: ACCGCAU (DNA:RNA)
RNA: GGGAGACCGGAAUUCAGAUUGUCCACCGCAUUUAAAUCCCGUCGUAGCCACCA
DNA 1: CAATCTGAATTCCGGTCTCCC
DNA 2: TGGTGGCTACGACGGGATT
B2: CGCCCCU (DNA:RNA)
RNA: B1 RNA with A25C, C26G, G28C, A30C
DNA 1: CAATCTGAATTCCGGTCTCCC
DNA 2: TGGTGGCTACGACGGGATT
B3: GGGGAGA (DNA:RNA)
RNA: B1 RNA with A25G, C26G, C27G, C29A, A30G, U31A
DNA 1: CAATCTGAATTCCGGTCTCCC
DNA 2: TGGTGGCTACGACGGGATT
B4: CAAAAAA (DNA:RNA)
RNA: B1 RNA with A25C, C26A, C27A, G28A, C29A, U31A
DNA 1: CAATCTGAATTCCGGTCTCCC
DNA 2: TGGTGGCTACGACGGGATT
B5: GUAGCUG (DNA:RNA)
RNA: B1 RNA with A25G, C26U, C27A, A30U, U31G
DNA 1: CAATCTGAATTCCGGTCTCCC
DNA 2: TGGTGGCTACGACGGGATT
B6: UUGUCUC (DNA:RNA)
RNA: B1 RNA with A25U, C26U, C27G, G28U, A30U, U31C
DNA 1: CAATCTGAATTCCGGTCTCCC
DNA 2: TGGTGGCTACGACGGGATT
B7: GUAUGCU (DNA:RNA)
RNA: B1 RNA with A25G, C26U, C27A, G28U, C29G, A30C
DNA 1: CAATCTGAATTCCGGTCTCCC
DNA 2: TGGTGGCTACGACGGGATT
B8: GUAGGUA (DNA:RNA)
RNA: B1 RNA with A25G, C26U, C27A, C29G, A30U, U31A
DNA 1: CAATCTGAATTCCGGTCTCCC
DNA 2: TGGTGGCTACGACGGGATT
B9: AAAUUCU (DNA:RNA)
RNA: B1 RNA with C26A, C27A, G28U, C29U, A30C
DNA 1: CAATCTGAATTCCGGTCTCCC
DNA 2: TGGTGGCTACGACGGGATT
B10: UGAUUCG (DNA:RNA)
RNA: GGGAGACCGGAAUUCAGAUUGUCCUGAUUCGUUAAAUCCCGUCGUAGCCACCA
DNA 1: CAATCTGAATTCCGGTCTCCC
DNA 2: TGGTGGCTACGACGGGATT
B11: UACCCUA (DNA:RNA)
RNA: B1 RNA with A25U, C26A, G28C, A30U, U31A
DNA 1: CAATCTGAATTCCGGTCTCCC
DNA 2: TGGTGGCTACGACGGGATT
B12: AACGCUC (DNA:RNA)
RNA: B1 RNA with C26A, A30U, U31C
DNA 1: CAATCTGAATTCCGGTCTCCC
DNA 2: TGGTGGCTACGACGGGATT
B13: CUAGAUC (DNA:RNA)
RNA: B1 RNA with A25C, C26U, C27A, C29A, A30U, U31C
DNA 1: CAATCTGAATTCCGGTCTCCC
DNA 2: TGGTGGCTACGACGGGATT
B14: GUAGGCA (DNA:RNA)
RNA: B10 RNA with U25G, G26U, U28G, U29G, G31A
DNA 1: CAATCTGAATTCCGGTCTCCC
DNA 2: TGGTGGCTACGACGGGATT
B15: AUUCAAG (DNA:RNA)
RNA: B1 RNA with C26U, C27U, G28C, C29A, U31G
DNA 1: CAATCTGAATTCCGGTCTCCC
DNA 2: TGGTGGCTACGACGGGATT
B16: CAUGCAA (DNA:RNA)
RNA: B1 RNA with A25C, C26A, C27U, U31A
DNA 1: CAATCTGAATTCCGGTCTCCC
DNA 2: TGGTGGCTACGACGGGATT
B17: UAAUUCG (DNA:RNA)
RNA: B10 RNA with G26A
DNA 1: CAATCTGAATTCCGGTCTCCC
DNA 2: TGGTGGCTACGACGGGATT
B18: GUGAACG (DNA:RNA)
RNA: B10 RNA with U25G, G26U, A27G, U28A, U29A
DNA 1: CAATCTGAATTCCGGTCTCCC
DNA 2: TGGTGGCTACGACGGGATT
B19: UCGGAAG (DNA:RNA)
RNA: B1 RNA with A25U, C27G, C29A, U31G
DNA 1: CAATCTGAATTCCGGTCTCCC
DNA 2: TGGTGGCTACGACGGGATT
B20: CUAGGUA (DNA:RNA)
RNA: B1 RNA with A25C, C26U, C27A, C29G, A30U, U31A
DNA 1: CAATCTGAATTCCGGTCTCCC
DNA 2: TGGTGGCTACGACGGGATT

The binders below were run against T1, RBFOX1 RRM RbFoxmut (Fox-RRM*) (assay: EMSA; HiTS-Eq, 1 nM pool, 10 min; buffer printed only for the single-RNA assays: 10 mM Tris pH 7.5, 150 mM NaCl, 3.4 mM EDTA, 0.001% NP-40, 30 C). Details: tags: His6 N-terminal (pET28a); label: 5' 32P.
How it was run: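 Purified RbFox RRM, wild type or mutant, was incubated for 10 min in 50 µL with 1 nM of a 5′-radiolabelled RNA pool carrying 7 randomized nucleotides, whose flanks were annealed to DNA oligonucleotides, over a series of increasing protein concentrations. Unbound RNA was resolved on 8% native PAGE, cut out, reverse-transcribed, barcoded by PCR and sequenced on an Illumina HiSeq 2500. Relative association constants were derived from changes in read counts for each RNA species versus the control reaction and normalised to the cognate motif.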

Binder	binding signal
B1	0.0984 KA relative to UGCAUGU
B2	0.0713 KA relative to UGCAUGU
B3	0.117 KA relative to UGCAUGU
B4	0.072 KA relative to UGCAUGU
B5	0.115 KA relative to UGCAUGU
B6	0.11 KA relative to UGCAUGU
B7	0.402 KA relative to UGCAUGU
B8	0.141 KA relative to UGCAUGU
B9	0.0697 KA relative to UGCAUGU
B10	0.126 KA relative to UGCAUGU
B11	0.122 KA relative to UGCAUGU
B12	0.0363 KA relative to UGCAUGU
B13	0.0536 KA relative to UGCAUGU
B14	0.122 KA relative to UGCAUGU
B15	0.118 KA relative to UGCAUGU
B16	0.0815 KA relative to UGCAUGU
B17	0.0642 KA relative to UGCAUGU
B18	0.538 KA relative to UGCAUGU
B19	0.095 KA relative to UGCAUGU
B20	0.132 KA relative to UGCAUGU
